Laboratory results published in the supplement of paper PMC8728848.
Some of the results follow.

Legend:
Test in all cases: glycan array binding signal (z-score within array); higher = stronger binding
Conditions in all cases: glycan notation: IUPAC condensed, linker removed
[1] = molecular target: Fuc(a1-2)Gal(b1-4)GlcNAc6S
Outline: (§1)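 Negative Z-scores can be read as non-binding. The Z-score is calculated within each array and then averaged across arrays of one protein sequence at different concentrations or buffers and across linkers. Arrays, 3228 in all, were curated from the Consortium for Functional Glycomics database and kept only where the protein sequence was available.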

[2] = molecular target: Fuc(a1-2)Gal(b1-4)[Fuc(a1-3)]GlcNAc
Outline: as §1

[3] = molecular target: Fuc(a1-2)Gal(b1-4)[Fuc(a1-3)]GlcNAc(b1-2)Man(a1-3)[Fuc(a1-2)Gal(b1-4)[Fuc(a1-3)]GlcNAc(b1-2)Man(a1-6)]Man(b1-4)GlcNAc(b1-4)GlcNAc
Outline: as §1

[4] = molecular target: Fuc(a1-2)Gal(b1-4)[Fuc(a1-3)]GlcNAc(b1-2)[Fuc(a1-2)Gal(b1-4)[Fuc(a1-3)]GlcNAc(b1-4)]Man(a1-3)[Fuc(a1-2)Gal(b1-4)[Fuc(a1-3)]GlcNAc(b1-2)Man(a1-6)]Man(b1-4)GlcNAc(b1-4)GlcNAc
Outline: as §1

[5] = molecular target: Fuc(a1-2)Gal(b1-4)[Fuc(a1-3)]GlcNAc(b1-3)Gal(b1-4)[Fuc(a1-3)]GlcNAc
Outline: as §1

[6] = molecular target: Fuc(a1-2)Gal(b1-4)[Fuc(a1-3)]GlcNAc(b1-3)Gal(b1-4)[Fuc(a1-3)]GlcNAc(b1-3)Gal(b1-4)[Fuc(a1-3)]GlcNAc
Outline: as §1

[7] = molecular target: Fuc(a1-2)Gal(b1-4)[Fuc(a1-3)]GlcNAc(b1-3)GalNAc
Outline: as §1

Fuc(a1-2)Gal6S(b1-4)Glc = molecular target: Fuc(a1-2)Gal6S(b1-4)Glc
Outline: as §1

[8] = molecular target: Fuc(a1-2)Gal6S(b1-4)Glc6S
Outline: as §1

[9] = molecular target: Fuc(a1-2)Gal6S(b1-4)GlcNAc
Outline: as §1

Fuc(a1-2)[Gal(a1-3)]Gal = molecular target: Fuc(a1-2)[Gal(a1-3)]Gal
Outline: as §1

[10] = molecular target: Fuc(a1-2)[Gal(a1-3)]Gal(b1-3)GalNAc
Outline: as §1

[11] = molecular target: Fuc(a1-2)[Gal(a1-3)]Gal(b1-3)GlcNAc
Outline: as §1

[12] = molecular target: Fuc(a1-2)[Gal(a1-3)]Gal(b1-3)GlcNAc(b1-2)Man(a1-3)[Fuc(a1-2)[Gal(a1-3)]Gal(b1-3)GlcNAc(b1-2)Man(a1-6)]Man(b1-4)GlcNAc(b1-4)GlcNAc
Outline: as §1

[13] = molecular target: Fuc(a1-2)[Gal(a1-3)]Gal(b1-3)GlcNAc(b1-2)Man(a1-3)[Fuc(a1-2)[Gal(a1-3)]Gal(b1-3)GlcNAc(b1-2)Man(a1-6)]Man(b1-4)GlcNAc(b1-4)[Fuc(a1-6)]GlcNAc
Outline: as §1

[14] = molecular target: Fuc(a1-2)[Gal(a1-3)]Gal(b1-3)GlcNAc(b1-3)GalNAc
Outline: as §1

[15] = molecular target: Fuc(a1-2)[Gal(a1-3)]Gal(b1-4)Glc
Outline: as §1

[16] = molecular target: Fuc(a1-2)[Gal(a1-3)]Gal(b1-4)GlcNAc
Outline: as §1

[17] = molecular target: Fuc(a1-2)[Gal(a1-3)]Gal(b1-4)GlcNAc(b1-2)Man(a1-3)[Fuc(a1-2)[Gal(a1-3)]Gal(b1-4)GlcNAc(b1-2)Man(a1-6)]Man(b1-4)GlcNAc(b1-4)GlcNAc
Outline: as §1

[18] = molecular target: Fuc(a1-2)[Gal(a1-3)]Gal(b1-4)GlcNAc(b1-2)Man(a1-3)[Fuc(a1-2)[Gal(a1-3)]Gal(b1-4)GlcNAc(b1-2)Man(a1-6)]Man(b1-4)GlcNAc(b1-4)[Fuc(a1-6)]GlcNAc
Outline: as §1

[19] = molecular target: Fuc(a1-2)[Gal(a1-3)]Gal(b1-4)GlcNAc(b1-3)GalNAc
Outline: as §1

[20] = molecular target: Fuc(a1-2)[Gal(a1-3)]Gal(b1-4)[Fuc(a1-3)]Glc
Outline: as §1

[21] = molecular target: Fuc(a1-2)[Gal(a1-3)]Gal(b1-4)[Fuc(a1-3)]GlcNAc
Outline: as §1

[22] = molecular target: Fuc(a1-2)[Gal(a1-3)]Gal(b1-4)[Fuc(a1-3)]GlcNAc(b1-3)GalNAc
Outline: as §1

[23] = molecular target: Fuc(a1-2)[Gal(a1-4)]Gal(b1-4)GlcNAc
Outline: as §1

[24] = molecular target: Fuc(a1-2)[GalNAc(a1-3)]Gal
Outline: as §1

[25] = molecular target: Fuc(a1-2)[GalNAc(a1-3)]Gal(b1-3)GalNAc(a1-3)[Fuc(a1-2)]Gal(b1-4)GlcNAc
Outline: as §1

[26] = molecular target: Fuc(a1-2)[GalNAc(a1-3)]Gal(b1-3)GlcNAc
Outline: as §1

[27] = molecular target: Fuc(a1-2)[GalNAc(a1-3)]Gal(b1-3)GlcNAc(b1-2)Man(a1-3)[Fuc(a1-2)[GalNAc(a1-3)]Gal(b1-3)GlcNAc(b1-2)Man(a1-6)]Man(b1-4)GlcNAc(b1-4)GlcNAc
Outline: as §1

[28] = molecular target: Fuc(a1-2)[GalNAc(a1-3)]Gal(b1-3)GlcNAc(b1-2)Man(a1-3)[Fuc(a1-2)[GalNAc(a1-3)]Gal(b1-3)GlcNAc(b1-2)Man(a1-6)]Man(b1-4)GlcNAc(b1-4)[Fuc(a1-6)]GlcNAc
Outline: as §1

B1: BC2L-D C-terminal domain (Burkholderia cenocepacia), Q39MQ9_BURS3 (protein)
chain: LVIVDAVTLLSAYPEASRDPAAPTVIDGRHLYVVSPGDAAQLGHNDSRLFTGLSPGDQLHLRETALALRAEVSVLFIRFALKDAGIVAPIELEVRDAATAVPDADDLLHPSCRPLKDHYWRSDVLAAGATTCTADFAVCDRDGTVSGYFRWETSIEIAGSQPDTKQPGFKPSSDRNGNFSLPPNTAFKAIFYANAADRQDLKLFIDDAPEPAATFVGNSEDGVRLFTLNSKGGKIRIEASANGRQSATDARLAPLSAGDTVWLGWLGAEDGADADYNDGIVILQWPIT
- glycan array binding signal (z-score) [1]: 0.114
- glycan array binding signal (z-score) [2]: 0.336
- glycan array binding signal (z-score) [3]: -0.057
- glycan array binding signal (z-score) [4]: -0.147
- glycan array binding signal (z-score) [5]: 0.473
- glycan array binding signal (z-score) [6]: 0.543
- glycan array binding signal (z-score) [7]: -0.155
- glycan array binding signal (z-score) (Fuc(a1-2)Gal6S(b1-4)Glc): -0.165
- glycan array binding signal (z-score) [8]: -0.15
- glycan array binding signal (z-score) [9]: -0.158
- glycan array binding signal (z-score) (Fuc(a1-2)[Gal(a1-3)]Gal): -0.243
- glycan array binding signal (z-score) [10]: -0.161
- glycan array binding signal (z-score) [11]: -0.18
- glycan array binding signal (z-score) [12]: 0.549
- glycan array binding signal (z-score) [13]: 0.296
- glycan array binding signal (z-score) [14]: -0.17
- glycan array binding signal (z-score) [15]: -0.243
- glycan array binding signal (z-score) [16]: -0.243
- glycan array binding signal (z-score) [17]: -0.167
- glycan array binding signal (z-score) [18]: 0.051
- glycan array binding signal (z-score) [19]: -0.161
- glycan array binding signal (z-score) [20]: -0.166
- glycan array binding signal (z-score) [21]: -0.104
- glycan array binding signal (z-score) [22]: -0.158
- glycan array binding signal (z-score) [23]: -0.194
- glycan array binding signal (z-score) [24]: -0.238
- glycan array binding signal (z-score) [25]: -0.169
- glycan array binding signal (z-score) [26]: -0.229
- glycan array binding signal (z-score) [27]: -0.129
- glycan array binding signal (z-score) [28]: 0.417
